Assay results published in PubChem BioAssay AID1259400 (National Center for Advancing Translational Sciences (NCATS), 2018).
Screen size: about 350,000 compounds; about 2,100 (0.6%) were called active. Inconclusive means that the source gave no clear call. Such entries were picked first, then a sample of the others.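 Rule for the calls: active = activity change of -60% or lower, but not beyond a set lower limit; inconclusive = change between -60% and -40%, or beyond the set limit; inactive = change above -40%.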
% is set by controls: 0 for no effect and ±100 for the full control effect.

The molecules below were run against Relaxin receptor 1 (Homo sapiens) (UniProt Q9HBX9) (assay: qHTS Assay for Antagonists of the Relaxin Receptor RXFP1). Settings: HEK293-RXFP1, relaxin-stimulated cAMP HTRF, 30 min; at 57.5 µM; stronger effect = lower value.
UniProt Q9HBX9, sequence (Q9HBX9 whole entry, looked up): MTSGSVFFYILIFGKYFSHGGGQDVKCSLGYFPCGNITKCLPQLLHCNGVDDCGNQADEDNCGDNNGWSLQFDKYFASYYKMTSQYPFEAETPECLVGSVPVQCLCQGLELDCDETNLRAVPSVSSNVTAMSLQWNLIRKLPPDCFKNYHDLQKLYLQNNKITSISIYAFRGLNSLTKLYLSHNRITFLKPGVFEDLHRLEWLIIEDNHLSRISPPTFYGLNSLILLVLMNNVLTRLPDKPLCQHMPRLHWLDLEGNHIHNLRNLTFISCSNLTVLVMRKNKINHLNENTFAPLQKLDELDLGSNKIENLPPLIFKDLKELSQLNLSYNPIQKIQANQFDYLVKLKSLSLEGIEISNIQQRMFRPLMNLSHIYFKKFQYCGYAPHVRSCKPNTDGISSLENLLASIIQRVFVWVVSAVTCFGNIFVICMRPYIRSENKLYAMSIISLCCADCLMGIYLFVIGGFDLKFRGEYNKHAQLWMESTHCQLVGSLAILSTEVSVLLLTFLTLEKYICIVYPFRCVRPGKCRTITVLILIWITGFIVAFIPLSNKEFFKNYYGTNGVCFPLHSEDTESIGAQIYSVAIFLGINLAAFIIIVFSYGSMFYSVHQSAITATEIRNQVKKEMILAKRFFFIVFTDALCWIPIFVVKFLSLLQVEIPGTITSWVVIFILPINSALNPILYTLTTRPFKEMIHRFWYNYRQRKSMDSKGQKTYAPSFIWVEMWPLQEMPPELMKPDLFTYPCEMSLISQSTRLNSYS
`CCC(Cc1ccccc1)n1c(=S)[nH]c2ccccc2c1=O` (stereo not given) was tested, and the activity change, negative = inhibition was inconclusive: -46.6%.
For `CC(C)(C)c1cc(C(=O)NNc2cc(C(F)(F)F)ccc2Cl)n(Cc2ccccc2)n1`, the activity change, negative = inhibition was inconclusive: -51.6%.
In the case of `COC(CNC(=O)c1ccc2c3c(onc13)-c1ccccc1C2=O)OC`, the activity change, negative = inhibition is reported as inconclusive: -51.1%.
For `Cc1ccc(C)c(Cn2c(-c3cccs3)nc3ccccc32)c1`, the activity change, negative = inhibition was inconclusive: -46.9%.
With `Clc1ccc2nc(N3CCNCC3)nc(-c3ccccc3)c2c1` the activity change, negative = inhibition was inconclusive: -49.6%.
With `N#Cc1ccccc1Cn1cc(/C=C/[N+](=O)[O-])c2ccccc21` the activity change, negative = inhibition was active: -65%.
In the case of `Cc1ccccc1-n1c(SCc2ccc(Cl)cc2)nc2[nH]ncc2c1=O`, the activity change, negative = inhibition is reported as inconclusive: -46.1%.
In the case of `CN(C)S(=O)(=O)c1cccc(NC(=S)NNC(=O)c2cc3ccccc3cc2O)c1`, the activity change, negative = inhibition is reported as inconclusive: -42.1%.
In the case of `CC(C)(C)c1cc(Cl)ccc1OCCOCCN1CCCC1`, the activity change, negative = inhibition is reported as inconclusive: -43.4%.
With `CCCCN(CCCC)CCNC(=O)c1cn(CC)c2ccc(S(=O)(=O)N(C)C3CCCCC3)cc2c1=O` the activity change, negative = inhibition was inactive: 0.943%.
`Cc1cnccc1CN(C)Cc1cn(C)nc1-c1ccc(Oc2ccccc2)cc1` was tested, and the activity change, negative = inhibition was inconclusive: -56.9%.
In the case of `CCCCC1CCC(C(=O)N(CC(C)C)c2c(N)n(CCCC)c(=O)[nH]c2=O)CC1` (stereo not given), the activity change, negative = inhibition is reported as inconclusive: -47.1%.
With `c1ccc(-n2cnc3cc(NCc4ccccn4)ccc32)cc1` the activity change, negative = inhibition was inactive: 10.5%.
For `Cc1nn(-c2ccc(N3CCCC3)nn2)c(C)c1CCC(=O)N1CCN(c2ccccc2)CC1`, the activity change, negative = inhibition was inactive: 10.8%.
`O=C(COC(=O)c1ccc(O)cc1O)N=c1sccn1Cc1ccccc1Cl` was tested, and the activity change, negative = inhibition was inconclusive: -57.4%.
With `Cn1c(CCN2CCCCC2)nc2cc(NC(=O)COc3ccc(Cl)cc3)ccc21` the activity change, negative = inhibition was inconclusive: -43.2%.
In the case of `CCN(CCNC(=O)C1CCN(Cc2nc(-c3cccc(Cl)c3)oc2C)CC1)c1ccccc1`, the activity change, negative = inhibition is reported as inconclusive: -53.3%.
In the case of `NC(=O)CCCCC1CCSS1` (stereo not given), the activity change, negative = inhibition is reported as active: -101%.
With `COc1nc(C)nc2c1sc1nc3c(cc12)COC(C)(C)C3` the activity change, negative = inhibition was inactive: 6.05%.
In the case of `CC(C)c1ccc(C2c3c(-c4ccccc4O)n[nH]c3C(=O)N2Cc2ccncc2)cc1` (stereo not given), the activity change, negative = inhibition is reported as inconclusive: -45.3%.
With `CCCCN1C(=O)C2(OCCCO2)c2cccc(C)c21` the activity change, negative = inhibition was inconclusive: -41.3%.
`COc1ccc(NC(=O)C2CCN(C(=O)Cc3ccccc3)CC2)c(OC)c1` was tested, and the activity change, negative = inhibition was inactive: 4.43%.
In the case of `O=C(CSc1nccc(-c2cccs2)n1)Nc1ccc(F)c(Cl)c1`, the activity change, negative = inhibition is reported as inactive: 2.3%.
With `O=C1CSc2ccc(C(=O)O)cc2N1` the activity change, negative = inhibition was active: -76.8%.
For `COc1ccc(C(=O)NCC(C)(c2ccccc2)c2ccccc2)cc1S(=O)(=O)N1CCOCC1`, the activity change, negative = inhibition was inactive: -7.84%.
For `COc1ccc(C(=O)Nc2nc3c(s2)CCCC3)cc1Cl`, the activity change, negative = inhibition was active: -70.9%.
With `O=C(CCCSc1ccccc1)Nc1nc(-c2ccco2)c(-c2ccco2)s1` the activity change, negative = inhibition was inconclusive: -50.4%.
For `COc1ccc(-c2nn(C)c(=O)c3ccccc23)cc1NS(C)(=O)=O`, the activity change, negative = inhibition was inactive: 6.32%.
`CCCCOc1ccc(Br)cc1CSC(=N)N` was tested, and the activity change, negative = inhibition was active: -71.2%.
`COc1ccc(-c2nnc(SCC(=O)NC3CCCC3)nc2-c2ccc(OC)c(OC)c2)cc1OC` was tested, and the activity change, negative = inhibition was active: -70.4%.
With `Cc1ccc(-c2cn(-c3cccc(Cl)c3)c(S(=O)(=O)CC(=O)Nc3cccc(C)c3)n2)cc1` the activity change, negative = inhibition was inactive: -32.2%.
In the case of `CCOC(=O)N1CCN(C(=O)CSc2ccc3nnc(CCNC(=O)c4ccccc4)n3n2)CC1`, the activity change, negative = inhibition is reported as inactive: -5.58%.
In the case of `Nc1nc2ccccc2n1C(=O)c1ccccc1`, the activity change, negative = inhibition is reported as inactive: 0.569%.
With `N=c1n(CCN2CCCCC2)c2ccccc2n1CC(=O)c1ccc(Cl)c(Cl)c1` the activity change, negative = inhibition was inconclusive: -46.7%.
In the case of `COCCCNC(=O)c1oc2c(c1C)-c1nn(Cc3cccc(Cl)c3)cc1CC2`, the activity change, negative = inhibition is reported as inactive: -16.1%.
In the case of `Cc1nonc1OCCNCCNc1ccc([N+](=O)[O-])cc1Cl`, the activity change, negative = inhibition is reported as inactive: -4.41%.
For `CC1C(c2ccccc2)N(C)C(c2ccccc2)CC1(O)c1ccc(F)cc1` (stereo not given), the activity change, negative = inhibition was inconclusive: -47.5%.
`O=C(COc1ccccc1Cl)NCC1(N2CCOCC2)CCCCC1` was tested, and the activity change, negative = inhibition was inconclusive: -47.8%.
For `COc1cc(-c2nnn(CC(=O)Nc3ccc(OC(F)(F)F)cc3)n2)cc(OC)c1OC`, the activity change, negative = inhibition was inactive: -17.2%.
With `O=C(CSc1c2c(nc3ccc(Cl)cc13)CCCC2)N1CCN(c2cccc(Cl)c2)CC1` the activity change, negative = inhibition was inconclusive: -41.2%.
`Cc1ccc2c(c1)C(c1ccc(F)cc1)N(C(=O)COc1ccc(Cl)cc1Cl)CC(=O)N2` (stereo not given) was tested, and the activity change, negative = inhibition was inconclusive: -40.5%.
`Cc1ccc(-n2nc(C(=O)NN)c(C)c(C#N)c2=O)cc1Cl` was tested, and the activity change, negative = inhibition was inconclusive: -48%.
For `CC(C)OC(=O)c1ccc(NCc2cc(O)ccc2O)cc1Cl`, the activity change, negative = inhibition was active: -85.7%.
With `O=c1c2ccccc2cnn1Cc1n[nH]c(=S)n1-c1ccccc1` the activity change, negative = inhibition was inconclusive: -40%.
With `Cc1ccc(Cl)c2c1=NC(=O)C=2c1[nH]c(=S)[nH]c1O` the activity change, negative = inhibition was active: -109%.
For `CCN(CC)CCN(C(=O)c1ccc2c(c1)CCCC2)c1nc2ccc(C)cc2s1`, the activity change, negative = inhibition was inconclusive: -44.9%.
With `CNC(=O)c1cc(Oc2ccc(NC(=O)Nc3ccc(Cl)c(C(F)(F)F)c3)cc2)ccn1` the activity change, negative = inhibition was inconclusive: -42.4%.
In the case of `Cc1ccc(C)c(S(=O)(=O)N2CCN(C(=O)C3CCN(c4ncnc5sc(C)c(C)c45)CC3)CC2)c1`, the activity change, negative = inhibition is reported as inconclusive: -40.1%.
With `COc1cc(C(=O)NC(=S)Nc2ccc(Cc3ccncc3)cc2)cc(OC)c1OC` the activity change, negative = inhibition was inactive: -0.851%.
`CCOc1ccccc1C(=O)Nc1ccc2nc3c(c(Nc4ccc(OC)c(OC)c4)c2c1)CCCC3` was tested, and the activity change, negative = inhibition was inconclusive: -56.3%.
For `CC(C)n1nccc1N(Cc1ccc(Br)cc1)S(=O)(=O)c1ccccc1`, the activity change, negative = inhibition was inconclusive: -43.8%.
In the case of `COc1cc(C(=O)N/N=C/c2ccc(OC(=O)c3ccccc3Cl)c(OC)c2)ccc1O`, the activity change, negative = inhibition is reported as inconclusive: -59.5%.
With `C=CCOC(=O)C1=C(C)N(C)C(=O)NC1c1cc2c(cc1Br)OCO2` (stereo not given) the activity change, negative = inhibition was active: -74.5%.
`CCc1ccc(Cc2cnc(NC(=O)C3=NCCN3)s2)cc1` was tested, and the activity change, negative = inhibition was active: -116%.
`Cc1cc(N2CCN(C)CC2)nc2ccc(NC(=O)Nc3ccccc3Br)cc12` was tested, and the activity change, negative = inhibition was inconclusive: -44.1%.
